# Laboratory results: the supplement of paper PMC8728848
# This is one part of the list.
# Experiments:
# Test in all cases: glycan array binding signal (z-score within array); higher = stronger binding
# Details in all cases: glycan notation: IUPAC condensed, linker removed
# [1] = target: Neu5Ac(a2-3)Gal(b1-4)GlcNAc(b1-6)[Neu5Ac(a2-3)Gal(b1-3)]GalNAc
# Method in brief: (§1)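 Glycan array data were curated from 3228 arrays in the Consortium for Functional Glycomics database and kept only where the protein sequence was available. Glycan names were converted to IUPAC-condensed notation, and columns mapping to the same glycan were averaged. The binding signal is a within-array Z-score, averaged across arrays of the same protein sequence at different concentrations or buffers and across linkers. Negative Z-scores can be read as non-binding.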
# [2] = target: Neu5Ac(a2-3)Gal(b1-4)GlcNAc6S
# Method in brief: as §1
# [3] = target: Neu5Ac(a2-3)Gal(b1-4)[Fuc(a1-3)]GlcNAc
# Method in brief: as §1
# [4] = target: Neu5Ac(a2-3)Gal(b1-4)[Fuc(a1-3)]GlcNAc(b1-2)Man
# Method in brief: as §1
# [5] = target: Neu5Ac(a2-3)Gal(b1-4)[Fuc(a1-3)]GlcNAc(b1-3)Gal
# Method in brief: as §1
# [6] = target: Neu5Ac(a2-3)Gal(b1-4)[Fuc(a1-3)]GlcNAc(b1-3)Gal(b1-4)GlcNAc
# Method in brief: as §1
# [7] = target: Neu5Ac(a2-3)Gal(b1-4)[Fuc(a1-3)]GlcNAc(b1-3)Gal(b1-4)[Fuc(a1-3)]GlcNAc(b1-3)Gal(b1-4)[Fuc(a1-3)]GlcNAc
# Method in brief: as §1
# [8] = target: Neu5Ac(a2-3)Gal(b1-4)[Fuc(a1-3)]GlcNAc(b1-3)GalNAc
# Method in brief: as §1
# [9] = target: Neu5Ac(a2-3)Gal(b1-4)[Fuc(a1-3)]GlcNAc(b1-6)[Gal(b1-3)]GalNAc
# Method in brief: as §1
# [10] = target: Neu5Ac(a2-3)Gal(b1-4)[Fuc(a1-3)]GlcNAc(b1-6)[Neu5Ac(a2-3)Gal(b1-3)]GalNAc
# Method in brief: as §1
# [11] = target: Neu5Ac(a2-3)Gal(b1-4)[Fuc(a1-3)]GlcNAc6S
# Method in brief: as §1
# [12] = target: Neu5Ac(a2-3)Gal6S(b1-4)GlcNAc
# Method in brief: as §1
# [13] = target: Neu5Ac(a2-3)Gal6S(b1-4)[Fuc(a1-3)]GlcNAc
# Method in brief: as §1
# Neu5Ac(a2-3)GalNAc = target: Neu5Ac(a2-3)GalNAc
# Method in brief: as §1
# [14] = target: Neu5Ac(a2-3)GalNAc(b1-4)GlcNAc
# Method in brief: as §1
# [15] = target: Neu5Ac(a2-3)[GalNAc(b1-4)]Gal(b1-4)Glc
# Method in brief: as §1
# [16] = target: Neu5Ac(a2-3)[GalNAc(b1-4)]Gal(b1-4)GlcNAc
# Method in brief: as §1
# [17] = target: Neu5Ac(a2-3)[GalNAc(b1-4)]Gal(b1-4)GlcNAc(b1-3)GalNAc
# Method in brief: as §1
# [18] = target: Neu5Ac(a2-3)[Neu5Ac(a2-6)]GalNAc
# Method in brief: as §1
# Neu5Ac(a2-6)Gal = target: Neu5Ac(a2-6)Gal
# Method in brief: as §1
# [19] = target: Neu5Ac(a2-6)Gal(b1-3)GlcNAc(b1-3)[Gal(b1-4)GlcNAc(b1-6)]Gal(b1-4)Glc
# Method in brief: as §1
# Neu5Ac(a2-6)Gal(b1-4)Glc = target: Neu5Ac(a2-6)Gal(b1-4)Glc
# Method in brief: as §1
# [20] = target: Neu5Ac(a2-6)Gal(b1-4)GlcNAc
# Method in brief: as §1
# [21] = target: Neu5Ac(a2-6)Gal(b1-4)GlcNAc(b1-2)Man
# Method in brief: as §1
# [22] = target: Neu5Ac(a2-6)Gal(b1-4)GlcNAc(b1-2)Man(a1-3)Man(b1-4)GlcNAc(b1-4)GlcNAc
# Method in brief: as §1
# [23] = target: Neu5Ac(a2-6)Gal(b1-4)GlcNAc(b1-2)Man(a1-3)[Gal(b1-4)GlcNAc(b1-2)Man(a1-6)]Man(b1-4)GlcNAc(b1-4)GlcNAc
# Method in brief: as §1
# [24] = target: Neu5Ac(a2-6)Gal(b1-4)GlcNAc(b1-2)Man(a1-3)[GlcNAc(b1-2)Man(a1-6)]Man(b1-4)GlcNAc(b1-4)GlcNAc
# Method in brief: as §1
# [25] = target: Neu5Ac(a2-6)Gal(b1-4)GlcNAc(b1-2)Man(a1-3)[GlcNAc(b1-4)][Neu5Ac(a2-6)Gal(b1-4)GlcNAc(b1-2)Man(a1-6)]Man(b1-4)GlcNAc(b1-4)GlcNAc
# Method in brief: as §1
# [26] = target: Neu5Ac(a2-6)Gal(b1-4)GlcNAc(b1-2)Man(a1-3)[Man(a1-6)]Man(b1-4)GlcNAc(b1-4)GlcNAc
# Method in brief: as §1
# [27] = target: Neu5Ac(a2-6)Gal(b1-4)GlcNAc(b1-2)Man(a1-3)[Neu5Ac(a2-3)Gal(b1-4)GlcNAc(b1-2)Man(a1-6)]Man(b1-4)GlcNAc(b1-4)GlcNAc
# Method in brief: as §1
# [28] = target: Neu5Ac(a2-6)Gal(b1-4)GlcNAc(b1-2)Man(a1-3)[Neu5Ac(a2-6)Gal(b1-4)GlcNAc(b1-2)Man(a1-6)]Man(b1-4)GlcNAc(b1-4)GlcNAc
# Method in brief: as §1
# [29] = target: Neu5Ac(a2-6)Gal(b1-4)GlcNAc(b1-2)Man(a1-3)[Neu5Ac(a2-6)Gal(b1-4)GlcNAc(b1-2)Man(a1-6)]Man(b1-4)GlcNAc(b1-4)[Fuc(a1-6)]GlcNAc
# Method in brief: as §1
# [30] = target: Neu5Ac(a2-6)Gal(b1-4)GlcNAc(b1-2)Man(a1-6)Man(b1-4)GlcNAc(b1-4)GlcNAc
# Method in brief: as §1
# [31] = target: Neu5Ac(a2-6)Gal(b1-4)GlcNAc(b1-2)Man(a1-6)[Gal(b1-4)GlcNAc(b1-2)Man(a1-3)]Man(b1-4)GlcNAc(b1-4)GlcNAc
# Method in brief: as §1
# [32] = target: Neu5Ac(a2-6)Gal(b1-4)GlcNAc(b1-2)Man(a1-6)[GlcNAc(b1-2)Man(a1-3)]Man(b1-4)GlcNAc(b1-4)GlcNAc
# Method in brief: as §1
# [33] = target: Neu5Ac(a2-6)Gal(b1-4)GlcNAc(b1-2)Man(a1-6)[Man(a1-3)]Man(b1-4)GlcNAc(b1-4)GlcNAc
# Method in brief: as §1
# [34] = target: Neu5Ac(a2-6)Gal(b1-4)GlcNAc(b1-2)[Neu5Ac(a2-6)Gal(b1-4)GlcNAc(b1-4)]Man(a1-3)[GlcNAc(b1-4)][Neu5Ac(a2-6)Gal(b1-4)GlcNAc(b1-2)[Neu5Ac(a2-6)Gal(b1-4)GlcNAc(b1-6)]Man(a1-6)]Man(b1-4)GlcNAc(b1-4)GlcNAc
# Method in brief: as §1
# [35] = target: Neu5Ac(a2-6)Gal(b1-4)GlcNAc(b1-2)[Neu5Ac(a2-6)Gal(b1-4)GlcNAc(b1-4)]Man(a1-3)[GlcNAc(b1-4)][Neu5Ac(a2-6)Gal(b1-4)GlcNAc(b1-4)Man(a1-6)]Man(b1-4)GlcNAc(b1-4)GlcNAc
# Method in brief: as §1
# [36] = target: Neu5Ac(a2-6)Gal(b1-4)GlcNAc(b1-2)[Neu5Ac(a2-6)Gal(b1-4)GlcNAc(b1-6)]Man(a1-6)[Neu5Ac(a2-6)Gal(b1-4)GlcNAc(b1-2)Man(a1-3)][GlcNAc(b1-4)]Man(b1-4)GlcNAc(b1-4)GlcNAc
# Method in brief: as §1
# [37] = target: Neu5Ac(a2-6)Gal(b1-4)GlcNAc(b1-3)Gal(b1-3)GlcNAc
# Method in brief: as §1
# [38] = target: Neu5Ac(a2-6)Gal(b1-4)GlcNAc(b1-3)Gal(b1-4)GlcNAc
# Method in brief: as §1
# [39] = target: Neu5Ac(a2-6)Gal(b1-4)GlcNAc(b1-3)Gal(b1-4)GlcNAc(b1-2)Man(a1-3)[Neu5Ac(a2-6)Gal(b1-4)GlcNAc(b1-3)Gal(b1-4)GlcNAc(b1-2)Man(a1-6)]GalNAc
# Method in brief: as §1
# [40] = target: Neu5Ac(a2-6)Gal(b1-4)GlcNAc(b1-3)Gal(b1-4)GlcNAc(b1-3)Gal(b1-4)GlcNAc
# Method in brief: as §1
# [41] = target: Neu5Ac(a2-6)Gal(b1-4)GlcNAc(b1-3)Gal(b1-4)GlcNAc(b1-3)Gal(b1-4)GlcNAc(b1-2)Man(a1-3)[Neu5Ac(a2-6)Gal(b1-4)GlcNAc(b1-3)Gal(b1-4)GlcNAc(b1-3)Gal(b1-4)GlcNAc(b1-2)Man(a1-6)]GalNAc
# Method in brief: as §1
# [42] = target: Neu5Ac(a2-6)Gal(b1-4)GlcNAc(b1-3)Gal(b1-4)GlcNAc(b1-3)GalNAc
# Method in brief: as §1
binder,measurement,setting,value
AMA (Arum maculatun) (protein) MAKLLLLLLLPAIVGLAVPRSAAAVGSNYMLSGETLNTDGRLTNGELTLIMQVDCNLVLYHGGWQSNTANNGRDCKLTLTDFGELVIKSGTGSTVWSSGSKQSMKGNYAAVVHPEGRLVIYGPSVFKINPSGAGLNGLPLRNIPLTNNMLFSGQVLYGDGTLSARNHKLVMQGDCNMVLYGGKYGWQSNTHGNGKYCFAMLTHKGELVIRDDDFKSVWSSKSSSKQGDYVFILQDDSLAIIYGPAVFSTGSKKMISMVTN,glycan array binding signal (z-score),[1],-0.215
same,glycan array binding signal (z-score),[2],-0.209
same,glycan array binding signal (z-score),[3],-0.217
same,glycan array binding signal (z-score),[4],-0.208
same,glycan array binding signal (z-score),[5],-0.211
same,glycan array binding signal (z-score),[6],-0.216
same,glycan array binding signal (z-score),[7],-0.189
same,glycan array binding signal (z-score),[8],-0.201
same,glycan array binding signal (z-score),[9],-0.196
same,glycan array binding signal (z-score),[10],-0.202
same,glycan array binding signal (z-score),[11],-0.218
same,glycan array binding signal (z-score),[12],-0.211
same,glycan array binding signal (z-score),[13],-0.22
same,glycan array binding signal (z-score),Neu5Ac(a2-3)GalNAc,-0.215
same,glycan array binding signal (z-score),[14],-0.217
same,glycan array binding signal (z-score),[15],-0.219
same,glycan array binding signal (z-score),[16],-0.214
same,glycan array binding signal (z-score),[17],-0.21
same,glycan array binding signal (z-score),[18],-0.221
same,glycan array binding signal (z-score),Neu5Ac(a2-6)Gal,-0.215
same,glycan array binding signal (z-score),[19],-0.214
same,glycan array binding signal (z-score),Neu5Ac(a2-6)Gal(b1-4)Glc,-0.208
same,glycan array binding signal (z-score),[20],-0.211
same,glycan array binding signal (z-score),[21],-0.212
same,glycan array binding signal (z-score),[22],-0.202
same,glycan array binding signal (z-score),[23],0.94
same,glycan array binding signal (z-score),[24],0.845
same,glycan array binding signal (z-score),[25],-0.218
same,glycan array binding signal (z-score),[26],-0.063
same,glycan array binding signal (z-score),[27],0.215
same,glycan array binding signal (z-score),[28],0.436
same,glycan array binding signal (z-score),[29],0.863
same,glycan array binding signal (z-score),[30],-0.21
same,glycan array binding signal (z-score),[31],1.15
same,glycan array binding signal (z-score),[32],1.33
same,glycan array binding signal (z-score),[33],0.252
same,glycan array binding signal (z-score),[34],-0.219
same,glycan array binding signal (z-score),[35],-0.216
same,glycan array binding signal (z-score),[36],-0.214
same,glycan array binding signal (z-score),[37],-0.224
same,glycan array binding signal (z-score),[38],-0.218
same,glycan array binding signal (z-score),[39],-0.154
same,glycan array binding signal (z-score),[40],-0.221
same,glycan array binding signal (z-score),[41],-0.029
same,glycan array binding signal (z-score),[42],-0.212
